The labels stand for the following.
B1: Caulobacter ParB omega fusion; a variant is named by its letters at X, in order, B8GW30 (parent)
chain: MESVVVGEPGMSEGRRGLGRGLSALLGEVDAAPAQAPGEQLGGSREAPIEILQRNPDQPRRTFREEDLEDLSNSIREKGVLQPILVRPSPDTAGEYQIVAGERAWRAAQRAGLKTVPIMVRELDDLAVLEIGIIENVQRADLNVLEEALSYKVLMEKFERTQENIAQTIGKSXSHVANXMRLLXLPDEVQSYLVSGELTAXHARAIAAAADPVALAKQIIEGGLSVRETEALARKAPNLSAGKSKGGRPPRVKDTDTQALESDLSSVLGLDVSIDHRGSTGTLTITYATLEQLDDLCNRLTRGI

In all, about 81,000 sequences were measured (“one-hybrid fitness for binding parS DNA”: median about -0.17, highest 2% from about 0.51 on). Some of the results follow.

The variants in this assay derive from B1. The assay can be described thus: one-hybrid fitness for binding parS DNA (scaled: cognate 1, non-cognate 0); higher = stronger binding. The settings on record: with parS DNA site. Summed up: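 The reporter was HIS3, with the binding site 19 bp from the promoter, in E. coli USO used for bacterial one-hybrid selection of Caulobacter ParB libraries with four specificity codons randomised. Growth was on M9 lacking histidine, with 0.1 mM IPTG and 5 mM 3-AT, for 48 hours at 37°C. Illumina sequencing covered plasmids before and after selection; three replicate libraries were pooled and variants with under 10 reads dropped. A fitness score is the log change in variant-to-wild-type read ratio, rescaled to the cognate and non-cognate references.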
Regarding HHLD, the “one-hybrid fitness for binding parS DNA” value is at most 0.2.
Under LKAE stands at most 0.2; under LIKL, at most 0.2.
Under ADWS stands at most 0.2; under IFLM, at most 0.2; under ALGV, at most 0.2.
In the case of QEGS it was at most 0.2.
In the case of AKQW, the “one-hybrid fitness for binding parS DNA” value is at most 0.2.
In the case of DATV it was at most 0.2.
Under VHVG stands at most 0.2.
As for GMPE, the “one-hybrid fitness for binding parS DNA” value is at most 0.2.
Under CNKT stands at most 0.2; under CYRC, at most 0.2.
QDIR: the “one-hybrid fitness for binding parS DNA” value was at most 0.2.
Under QQVY stands at most 0.2; under QVYM, at most 0.2; under SSAT, at most 0.2.
In the case of WHKT it was at most 0.2; in that of GWTV, at most 0.2.
Under LVQL stands at most 0.2; under KRHA, at most 0.2; under ANPT, at most 0.2.
As for WCWR, the “one-hybrid fitness for binding parS DNA” value is at most 0.2.
Regarding PGIL, the “one-hybrid fitness for binding parS DNA” value was at most 0.2.
In the case of MTPG it was at most 0.2; in that of LVLY, at most 0.2; in that of IWRG, at most 0.2.
In the case of PNYN it was at most 0.2.
Under SDFT stands at most 0.2; under KYCS, at most 0.2.
As to ENIS, the “one-hybrid fitness for binding parS DNA” value is at most 0.2.
Under HFVR stands at most 0.2; under RVEI, at most 0.2.
Under RTVL stands at most 0.2; under TTSR, at most 0.2; under QGYT, at most 0.2.
In the case of PWVQ it was at most 0.2; in that of DKLT, at most 0.2; in that of QIQV, at most 0.2.
In the case of MINC, the “one-hybrid fitness for binding parS DNA” value was at most 0.2.
In the case of LCHY it was at most 0.2.
With DRKV, the “one-hybrid fitness for binding parS DNA” value is at most 0.2.
Under RKRC stands 0.737; under IRTF, at most 0.2; under MCKC, at most 0.2.
Turning to KCMV, the “one-hybrid fitness for binding parS DNA” value was at most 0.2.
For the variant GELL, the “one-hybrid fitness for binding parS DNA” value is at most 0.2.
Under VDRR stands at most 0.2; under RHQI, at most 0.2.
In the case of LGQS it was at most 0.2.
In the case of KVGL it was at most 0.2.
Regarding QKQF, the “one-hybrid fitness for binding parS DNA” value was at most 0.2.
On to NHKE, for which the “one-hybrid fitness for binding parS DNA” value was at most 0.2.
Under HNSI stands at most 0.2; under PSDS, at most 0.2; under VFDC, at most 0.2.
Under DVMG stands at most 0.2.
In the case of HMDV it was at most 0.2; in that of QWHR, at most 0.2.
Take TYSS: the “one-hybrid fitness for binding parS DNA” value is at most 0.2.
Under NKKV stands at most 0.2; under EGKF, at most 0.2; under KSRY, at most 0.2.
In the case of PLNH it was at most 0.2; in that of IYAI, at most 0.2.
Turning to AVDT, the “one-hybrid fitness for binding parS DNA” value is at most 0.2.
In the case of AGTL it was at most 0.2; in that of ADPW, at most 0.2.
Under CPLK stands at most 0.2.
With LVAN, the “one-hybrid fitness for binding parS DNA” value is at most 0.2.
Turning to WPVN, the “one-hybrid fitness for binding parS DNA” value was at most 0.2.
In the case of WRVT it was at most 0.2; in that of CQPR, at most 0.2.
In the case of PMDS it was at most 0.2; in that of RPAG, at most 0.2.
In the case of NSTE it was at most 0.2; in that of LCGL, at most 0.2.
With NRHA, the “one-hybrid fitness for binding parS DNA” value is at most 0.2.
In the case of QPKV it was at most 0.2.
In the case of YLVN it was at most 0.2; in that of RAVS, 0.986; in that of QNVT, at most 0.2.
Under GDSK stands at most 0.2; under AGSD, at most 0.2; under TCTP, at most 0.2.
As for RIQR, the “one-hybrid fitness for binding parS DNA” value was at most 0.2.
In the case of DHDY it was at most 0.2; in that of EFRS, at most 0.2.
In the case of PWCC it was at most 0.2.
As to WSKF, the “one-hybrid fitness for binding parS DNA” value is at most 0.2.
Under MCPS stands at most 0.2; under RNYE, at most 0.2; under SFIT, at most 0.2.
In the case of PQHT, the “one-hybrid fitness for binding parS DNA” value is at most 0.2.
With YADF, the “one-hybrid fitness for binding parS DNA” value was at most 0.2.
Under FCNR stands at most 0.2; under MWWG, at most 0.2.
In the case of SCTD it was at most 0.2; in that of LAPP, at most 0.2.
In the case of FSMS it was at most 0.2; in that of AKYW, at most 0.2.
Consider AEKM, for which the “one-hybrid fitness for binding parS DNA” value is at most 0.2.
With RWPK, the “one-hybrid fitness for binding parS DNA” value was at most 0.2.
Under TYRL stands at most 0.2.
In the case of RRFL it was at most 0.2; in that of PYLW, at most 0.2; in that of TAIG, at most 0.2.
Under YDFC stands at most 0.2; under TNML, at most 0.2; under RVNV, at most 0.2.
With TNDK, the “one-hybrid fitness for binding parS DNA” value was at most 0.2.
In the case of QVPW it was at most 0.2; in that of TAPR, at most 0.2.
Turning to RCLD, the “one-hybrid fitness for binding parS DNA” value was at most 0.2.
In the case of GRRM it was at most 0.2.
In the case of TLPS it was at most 0.2.
Under NKQG stands at most 0.2; under DPVS, at most 0.2.
As to DRGG, the “one-hybrid fitness for binding parS DNA” value was at most 0.2.
Take DVGS: the “one-hybrid fitness for binding parS DNA” value was at most 0.2.
In the case of RYEL, the “one-hybrid fitness for binding parS DNA” value is at most 0.2.
In the case of AHNC it was at most 0.2; in that of TPCR, at most 0.2; in that of AERL, at most 0.2.
Under EFKT stands at most 0.2; under SSEM, at most 0.2.
Under PIDQ stands at most 0.2; under GWSK, at most 0.2; under WFRR, at most 0.2.
As for RTMW, the “one-hybrid fitness for binding parS DNA” value amounted to 0.258.
For the variant DAGC, the “one-hybrid fitness for binding parS DNA” value is at most 0.2.
In the case of FSYC it was at most 0.2.
In the case of CWTQ it was at most 0.2; in that of RPVY, at most 0.2; in that of IYHG, at most 0.2.
Under RSSN stands 0.436; under RKQG, 0.913.
On to QSTK, for which the “one-hybrid fitness for binding parS DNA” value was at most 0.2.
Under PKVL stands at most 0.2; under CPCM, at most 0.2.
In the case of DTDV it was at most 0.2; in that of NCCT, at most 0.2; in that of QMTI, at most 0.2.
In the case of PMAL it was at most 0.2; in that of RMRQ, at most 0.2; in that of QNSK, at most 0.2.
Consider MPPT, for which the “one-hybrid fitness for binding parS DNA” value was at most 0.2.
In the case of NSYT it was at most 0.2; in that of YMLS, at most 0.2; in that of RQME, at most 0.2.
In the case of VCKC it was at most 0.2; in that of EESG, at most 0.2.
Under RCPE stands at most 0.2.

For the origin of these results see a collection of fitness landscapes (doi:10.1016/j.celrep.2020.107928).
